From article PMC6919601, “Identification of Plasmodium dipeptidyl aminopeptidase allosteric inhibitors by high throughput screening” (PLoS ONE, 2019)
“And” between values parts separate entries of the source, which are not always exact repeats. Identical values can stand only once. Screen size: about 110,000 compounds; about 230 (0.21%) showed an effect of 50% or more. This is one part of the list.

biological target: DPAP1 (Plasmodium falciparum, UniProt Q8IIJ9); assay: primary screen, percent inhibition; read by cleavage of a fluorogenic dipeptide substrate; higher = more effect of the substance; parameters: species or system P. falciparum D10 trophozoite lysates; single well
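Also: 30 min substrate incubation versus DMSO and 10 µM JCP410 controls.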

Sequence of DPAP1 (Q8IIJ9 whole entry, looked up): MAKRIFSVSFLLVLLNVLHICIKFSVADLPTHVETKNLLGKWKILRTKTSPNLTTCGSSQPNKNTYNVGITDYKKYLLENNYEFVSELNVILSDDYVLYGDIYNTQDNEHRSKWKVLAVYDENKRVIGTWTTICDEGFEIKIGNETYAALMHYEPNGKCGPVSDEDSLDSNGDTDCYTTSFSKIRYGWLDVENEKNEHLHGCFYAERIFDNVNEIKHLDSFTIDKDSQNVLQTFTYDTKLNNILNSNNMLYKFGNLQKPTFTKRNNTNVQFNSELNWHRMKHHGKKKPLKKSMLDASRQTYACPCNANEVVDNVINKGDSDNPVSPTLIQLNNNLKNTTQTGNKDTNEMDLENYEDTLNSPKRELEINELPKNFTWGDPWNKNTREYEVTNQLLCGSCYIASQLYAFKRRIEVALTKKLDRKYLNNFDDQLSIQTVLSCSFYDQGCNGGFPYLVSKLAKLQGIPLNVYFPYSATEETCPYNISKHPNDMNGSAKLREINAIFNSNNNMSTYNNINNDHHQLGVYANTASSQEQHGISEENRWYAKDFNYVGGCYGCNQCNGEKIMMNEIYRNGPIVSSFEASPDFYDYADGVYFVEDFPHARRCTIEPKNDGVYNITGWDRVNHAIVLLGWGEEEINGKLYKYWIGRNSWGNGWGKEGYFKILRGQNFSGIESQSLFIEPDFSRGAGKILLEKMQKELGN

SMILES	% Inhibition @ 10 uM
Cc1cc(N2CCOCC2)ccc1/C=C1\S/C(=N/c2ccc(N3CCOCC3)cc2)N(C)C1=O	-3.04%
CN(C)CCNC(=O)COc1ccc(Cl)cc1	-14.9%
COc1ccc(C(=O)N2CC(C)N(C(=O)c3ccc(OC)c(OC)c3)CC2C)cc1OC (stereo not shown)	-1.95%
Cc1cccn2c(=O)c(/C=C(\C#N)C(=O)N3CCOCC3)c(Oc3ccccc3Cl)nc12	0.315%
Cc1ccc(CS(=O)(=O)Cc2ccc(C(=O)NCCCN3CCOCC3)o2)cc1	2.18%
COc1ccc(Br)cc1CNC(=O)C(C)n1ncn2cccc2c1=O (stereo not shown)	-8.43%
CC(C)=C(C#N)n1cnc2ccccc21	4.41%
Cc1cc(N2CCOCC2)nc(N2CCOCC2)n1	1.31%
CCc1ccc(C2CC(=O)N=C(NC(=O)c3cc(OC)c(OC)c(OC)c3)N2)cc1 (stereo not shown)	-3.62%
Cc1ccc(-n2ncc3c(NC(C)(C)C)ncnc32)c(C)c1	2.72%
O=C(Nc1cccc2c1CCCC2)c1ccccc1F	3.53%
Cc1ccc(-c2nc(CN(C)C)cc(CN(C)C)c2O)cc1	-3.65%
Cc1nnc(SCc2ccccc2)nc1O	-3.66% and -7.27%
COc1ccc(C2CC(=O)OC3=C2C(=O)c2ccccc2C3=O)c(OC)c1 (stereo not shown)	5.93%
Cc1cc(C)cc(NC(=O)C2C3C=CC(O3)C2C(=O)O)c1 (stereo not shown)	3.69%
CCOc1ccc(-c2cc(C(=O)NCC3CCCO3)c3ccccc3n2)cc1 (stereo not shown)	-2.84%
CN(Cc1ccccc1)C(=O)c1cc(-c2ccc3c(c2)OCO3)on1	-6.45%
Cc1ccccc1NC(=O)c1ccc(C(=O)Nc2ccccc2C)cc1	3.33%
COc1ccc(S(=O)(=O)Nc2cccc(-c3cn4cccc(C)c4n3)c2)cc1C	-5.81%
C=CCOc1c(Cl)cc(CNc2ccc3[nH]c(O)nc3c2)cc1OC	0.907%
COc1ccc(C(=O)Nc2ccc(S(=O)(=O)N3CCC(C)CC3)cc2)cc1OC	21.2%
CCc1ccc(OCC(=O)N(Cc2nc(-c3ccccc3)no2)C(C)C)c(Br)c1	0.232%
COc1ccc(OC)c(NS(=O)(=O)c2ccc(F)cc2)c1	2.22%
O=C(COc1ccc(Cl)cc1Cl)NC1CCS(=O)(=O)C1 (stereo not shown)	-0.48%
Cc1ccc(C(=O)NCC2CCCO2)cc1 (stereo not shown)	-3.94%

SMILES	% Inhibition @ 10 uM
N#CCCNCc1ccccc1	2.4%
Cn1c(C(=O)O)c(CNCc2ccco2)c2ccccc21	3.54%
COCCNC(=O)CS(=O)(=O)Cc1nc(-c2ccccc2Cl)oc1C	0.44%
COc1ccc(Cl)cc1C(=O)Nc1nnc(C(C)C)s1	5.12%
O=C(NCc1ccc2c(c1)OCO2)c1cccc(F)c1	3.79%
O=C(NCC1CCCO1)c1cnn2c1NC(c1ccc(Br)cc1)CC2C(F)(F)F (stereo not shown)	-2.53%
COc1ccc(-c2cc(-c3ccc(Cl)cc3)n3ncnc3n2)cc1OC	1.97%
CC(=O)ONc1ccc(NC=C2C(=O)N(C)C(=O)N(C)C2=O)cc1	8.6%
CCOC(=O)N1CCN(C(=O)C2c3cc(OC)c(OC)cc3C(=O)N(C)C2c2cccnc2)CC1 (stereo not shown)	-2.12%
COc1ccccc1/C=C1\N=C(c2ccc(C)cc2)OC1=O	-0.441%
CCn1c(C(=O)O)c(CNC2CCCCCCC2)c2ccc(OC)cc21	-5.68%
CCOC(=O)c1cc(-c2ccc(OC)cc2)nc2ccccc12	8.6%
Cc1cc2c(cc1C)C(c1ccsc1)CC(=O)N2 (stereo not shown)	-1.28%
C=CCOc1ccc(C(=O)N(Cc2ccc(C)o2)C2CCS(=O)(=O)C2)cc1 (stereo not shown)	-2.85%
Cc1nnc(N2CCC(C(=O)NC(C)(C)C)CC2)c2nn(-c3ccc(Cl)cc3)c(C)c12	9.2%
CCOC(=O)C1CCCN(Cc2ccccc2Br)C1 (stereo not shown)	-0.192%
COc1ccccc1CC(=N)NOC(=O)COc1ccc(C(C)(C)C)cc1	1.96%
CCOc1ccccc1NC(=O)Cc1cccc2ccccc12	0.843%
CCC/N=c1\c(NS(=O)(=O)c2ccc(CC(C)C)cc2)c(O)oc2ccccc12	5.41%
O=C(Nc1ccccc1C(=O)N1CCCCC1)c1cccs1	-4.39%
CSc1ccc(CN2CCN(Cc3ccccc3Cl)CC2)cc1	10%
CC(C)COC(=O)N1CC(O)CC1C(=O)Nc1ccc(C23C[C@H]4C[C@@H](C2)C[C@@H](C3)C4)cc1 (stereo partly shown)	9.19%
CN1CCN(Cc2c(Cl)cccc2Cl)CC1	-5.42%
Cc1cc(C(F)F)n2nc(C(=O)Nc3ccc(Cl)c(C(F)(F)F)c3)nc2n1	0.431%
CS(=O)(=O)N(CCc1ccccc1)CC(=O)N1CCN(c2ccccc2F)CC1	-7.17%

SMILES	% Inhibition @ 10 uM
CCC(C)c1c(O)nc(S)nc1O (stereo not shown)	0.0792%
CCOc1ccc(-c2nc(Cn3c(=O)cc(C)c4c(C)nn(-c5cccc(F)c5)c43)c(C)o2)cc1	3.47%
CN(Cc1ccco1)C(=O)Nc1cn(C)c(=O)c2ccccc12	5.62%
O=C1CC(N2CCN(c3ccc(F)cc3)CC2)C(=O)N1c1cccc(C(F)(F)F)c1 (stereo not shown)	-5.67%
COc1ccc(OC)c(CN2CCN(c3ccccc3F)CC2)c1	-3.65%
CNC(=S)C12CC3CC(CC(Cl)(C3)C1)C2	1.12%
Cc1ccc(C(=O)Nc2sc3c(c2C#N)CC(C)(C)NC3(C)C)cc1	-0.941%
Cc1ccc(C)n1-c1nnc(N2CCC(C(=O)N3CCC4(CC3)OCCO4)CC2)s1	-4.15%
Cc1ccc(S(=O)(=O)Cc2ccc(C(=O)N3CCc4ccccc4C3)o2)cc1	-3.32%
Cc1sc(NC(=O)C2CCCCC2)c(C(N)=O)c1C	-0.582%
O=C(O)C1Cc2c([nH]c3ccccc23)C(c2cccc(O)c2)N1 (stereo not shown)	-3.62%
O=C(O)c1ccc(-c2nc3c4ccccc4c4ccccc4c3[nH]2)cc1	14.8%
O=C1OC(c2ccccc2Br)=N/C1=C\N1CCOCC1	-8.05%
Cn1c(=O)c2ncn(CC(=O)Nc3ccc(-c4nc5ccccc5o4)cc3)c2n(C)c1=O	18.2%
Cc1ccc(N2C(=O)NC(=O)/C(=C/Nc3cccc(Br)c3)C2=O)cc1	-2.54%
Cc1ccc(CCNC(=O)C(C)n2sc3ccccc3c2=O)cc1 (stereo not shown)	-3.27%
CS(=O)(=O)N(CC(=O)N1CCC(Cc2ccccc2)CC1)c1cccc(F)c1	4.22%
CC1=C(C(=O)Nc2ccccc2)C(c2ccc(C)o2)n2c(s/c(=C/c3cnn(C)c3C)c2=O)=N1 (stereo not shown)	2.42%
O=C1NC(=O)c2cccc3cccc1c23	-4.51%
Cc1[nH]nc2c1C(c1cc(CSc3nc4ccccc4s3)cs1)C(C#N)=C(N)O2 (stereo not shown)	9.78%
CCN(CC)Cc1cc(C(=O)O)c(-c2ccccc2)o1	1.03%
Cc1c(Cl)c(C(=O)Nc2nc3ccccc3n2CCN2CCCCC2)nn1C	-1.1%
O=C(C1c2ccccc2Oc2ccccc21)N1CCCCCC1	-1.88%
C=CCOc1ccc(CNC(C)c2ccccc2)cc1OC (stereo not shown)	4.11%
CC1CC(=O)C2=C(C1)OC(N)=C(C#N)C2c1ccc(Br)cc1 (stereo not shown)	-0.197%

SMILES	% Inhibition @ 10 uM
COCCN1C(=O)/C(=C/c2cccc(C)c2)S/C1=N\c1ccccc1	64.4%
COC(=O)C1=C(C)N(CCc2ccccc2)C(=O)/C1=C\c1cccc(O)c1	-5.26%
CCN(CC)CC(O)c1cc2cc(Br)ccc2s1 (stereo not shown)	-9.93%
[O-][n+]1onc2c1CCc1c-2nc(-c2ccccc2Cl)n1O	0.215%
CCCSc1nnc2c(=O)n(C)c(=O)n(C)c2n1	-1.15%
FC(F)(F)c1cccc(/C=C/c2nn3c(-c4ccco4)nnc3s2)c1	46.8%
FC(F)(c1cc(-c2ccccc2)[nH]n1)C(F)(F)c1cc(-c2ccccc2)[nH]n1	-0.736%
C(=C\c1ccccc1)/CN1CCN(C2c3ccccc3-c3ccccc32)CC1	0.774%
CC(=O)/N=C(\N)Nc1nc(=O)c2ccccc2s1	5.55%
NC(=O)c1c(NC(=O)C2CCCN(C(=O)c3cc(F)cc(F)c3)C2)sc2c1CCCC2 (stereo not shown)	22.8%
COCc1cc(C)nc(SCC(=O)Nc2ccc(OC)cc2)c1C#N	3.05%
CC[C@H](NC(=O)[C@H](CC1CCCC1)NC1=NS(=O)(=O)c2ccccc21)C(=O)c1nc(-c2ccccc2)no1	-6.56%
COc1ccccc1-c1nnc(N)s1	5.98%
CCN(CC)c1ccc(NC(=O)c2nc3nc(C)cc(C(F)F)n3n2)cc1	-11.4%
O=C(Nc1c(C(=O)N2CCN(C(=O)c3ccco3)CC2)cnn1-c1ccccc1Cl)c1ccco1	-3.57%
N#CCNC(=O)C(CC1CCCCCC1)NC(=O)c1ccccc1 (stereo not shown)	-3.49%
Cc1ccc(S(=O)(=O)N(CC(=O)Nc2ccc3c(c2)OCO3)c2cccc(Cl)c2)cc1	-0.588%
CN1c2ccccc2-c2ccccc2C12C=Cc1cc(Br)cc(Br)c1O2 (stereo not shown)	4.33%
O=C(Nc1nonc1-n1cccc1)c1ccccc1Cl	-2.19%
COC(=O)c1onc(C(=O)c2ccccc2)c1C(=O)OC	-3.78%
O=C(Nc1nncs1)c1cn(-c2ccccc2)nc1-c1ccccc1	3.92%
OC(CN1CCCCC1)Cn1c(C(F)(F)F)nc2ccccc21 (stereo not shown)	-5.13%
COC(=O)C1=C(C)NC(=O)CC1c1cccc(C(F)(F)F)c1 (stereo not shown)	0.345%
O/C(=C\C=N\c1ccccc1O)c1ccc(F)cc1	1.35%
O=C(Cc1ccc(F)cc1)NCc1ccc2[nH]c3c(c2c1)CCCC3	3.19%
